Test results from US12630643B2, “CD40 binding protein, bispecific conjugate thereof and method of treating cancer” (priority 2020, dated 2026).

Experiments:
Cynomolgus CD40-Fc = experiment: SPR kinetic measurements (single cycle kinetics) on captured IgG2, cCD40-Fc; settings: Cynomolgus CD40-Fc (dimer, avidity effects may contribute)
[1] = test system: human monocyte-derived dendritic cells; experiment: Internalisation of antibody into dendritic cells; settings: 125 nM antibody
Human CD40-avi = Human CD40-avi (Homo sapiens, UniProt P25942); experiment: SPR kinetic measurements (single cycle kinetics) on captured IgG2, hCD40-avi; settings: 1:1 Langmuir binding model
[2] = test system: human monocyte-derived DC (MoDC); experiment: MoDC activation, IL-12p40 ELISA; format: cell-based
human moDCs = experiment: Dendritic cell microscopy (clustering); format: cell-based; settings: 200 nM and 1.6 nM
Canine CD40-Fc = biological target: T1, Canine CD40-Fc (Canis lupus familiaris, UniProt Q7YRL5); experiment: SPR single cycle kinetics of Example 5, canine CD40-Fc; format: binding; settings: in words
T1 construct: purchased Sino Biological 70105-D02H
T1 sequence (Q7YRL5 21-193 limits assumed): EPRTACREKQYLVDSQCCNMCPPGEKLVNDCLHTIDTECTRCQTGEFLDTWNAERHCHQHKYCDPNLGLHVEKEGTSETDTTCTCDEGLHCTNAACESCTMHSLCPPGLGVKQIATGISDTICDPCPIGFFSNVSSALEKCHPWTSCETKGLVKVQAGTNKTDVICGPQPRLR

Human CD40-Fc = Human CD40-Fc (Homo sapiens, UniProt P25942); experiment: SPR kinetic measurements (single cycle kinetics) on captured IgG2, hCD40-Fc
[3] = test system: human monocyte-derived DC (MoDC); experiment: MoDC activation, flow cytometry of surface activation markers (t-SNE)
[4] = Human CD40-Fc (dimer, avidity effects may contribute)

Sequence of Human CD40-Fc (P25942 21-193): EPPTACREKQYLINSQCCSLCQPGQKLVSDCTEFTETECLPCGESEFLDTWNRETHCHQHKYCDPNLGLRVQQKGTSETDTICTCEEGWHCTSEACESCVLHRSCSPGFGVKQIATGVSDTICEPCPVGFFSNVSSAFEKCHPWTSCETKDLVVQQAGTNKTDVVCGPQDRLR
Sequence of Human CD40-avi (P25942 21-193): as above

B1: Y-SM083-A9: agonistic human anti-CD40 IgG2 monoclonal antibody; light chain SEQ ID NO: 9, heavy chain SEQ ID NO: 10 (antibody)
heavy: EVQLLESGGGLVQPGGSLRLSCAASGFTFSSYAMSWVRQAPGKGLEWVSGISGYSGSTYYADSVKGRFTISRDNSKNTLYLQMNSLRAEDTAVYYCARYYSYYGYYYFDYWGQGTLVTVSSASTKGPSVFPLAPCSRSTSESTAALGCLVKDYFPEPVTVSWNSGALTSGVHTFPAVLQSSGLYSLSSVVTVPSSNFGTQTYTCNVDHKPSNTKVDKTVERKCCVECPPCPAPPVAGPSVFLFPPKPKDTLMISRTPEVTCVVVDVSHEDPEVQFNWYVDGVEVHNAKTKPREEQFNSTFRVVSVLTVVHQDWLNGKEYKCKVSNKGLPAPIEKTISKTKGQPREPQVYTLPPSREEMTKNQVSLTCLVKGFYPSDIAVEWESNGQPENNYKTTPPMLDSDGSFFLYSKLTVDKSRWQQGNVFSCSVMHEALHNHYTQKSLSLSPGK
light: DIQMTQSPSSLSASVGDRVTITCRASQSISSYLNWYQQKPGKAPKLLIYAASSLQSGVPSRFSGSGSGTDFTLTISSLQPEDFATYYCQQGYPYPFTFGQGTKLEIKRTVAAPSVFIFPPSDEQLKSGTASVVCLLNNFYPREAKVQWKVDNALQSGNSQESVTEQDSKDSTYSLSSTLTLSKADYEKHKVYACEVTHQGLSSPVTKSFNRGEC
modifications: Heavy chain; Light chain
With B1 the “ka” value (Cynomolgus CD40-Fc) was 500000 M⁻¹ s⁻¹, the “kd” value (Cynomolgus CD40-Fc) was 0.0022 s⁻¹ and the internalisation ([1]; after 60 min at 37° C.) was 50%. The antibodies remained extracellular ([1]; after 4 h incubation) was “Approximately 30%”, the “ka” value (Human CD40-avi) was 170000 M⁻¹ s⁻¹ and the “kd” value (Human CD40-avi) was 0.0061 s⁻¹. For the same molecule, the “agonistic activity by IL-12 ELISA” value ([2]; Example 7, 1:2 serial dilutions from 500 nM, 48 h) was “highest agonistic activity of the new antibodies”, the IL-12 production ([2]; Example 12, 1:2 serial dilutions from 200 nM, 48 h) was “induced substantial cytokine release” and the “IL-12 production (agonistic potential)” value ([2]; Example 13, 100-12.5 nM, 48 hours) was “dose-dependent agonistic potential”. The “% agonistic activity of A9 at 25 nM” value ([2]; IL-12 production after 48 h, relative to A9 (SP9)) was 100 (reference) %, the “dendritic cell clustering (activation)” value (human moDCs) was “induced significant clustering” and the “binding to canine CD40” value (Canine CD40-Fc) was “only Ab-5 (CP-870,893) binds canine CD40”. For the same molecule, the “ka” value (Human CD40-Fc; [4]) was 310000 M⁻¹ s⁻¹, the “kd” value (Human CD40-Fc; [4]) was 0.0016 s⁻¹ and the Kd (Human CD40-Fc; read-out: affinity constant for human CD40, as stated in the description) was roughly 5 nM. The “agonistic profile, t-SNE cluster of surface expression of CD14, CD1a, CD40, HLA-DR, CD86 and CD83” value ([3]; 125 nM antibody, 48 hours of stimulation) was “potent agonistic potential” and the “expression of dendritic cell surface activation markers HLA-DR, CD83 and CD86” value ([3]; Example 12, 200 nM) was “induced expression of the dendritic cell surface activation markers”.
